Assay results: PubChem BioAssay AID686971 (National Center for Advancing Translational Sciences (NCATS), 2013)
Out of some 360,000 compounds screened, about 7,500 (2.1%) were called active. Inconclusive results, whose numbers are uncertain, are shown with a selection of clear calls. The call rests on the fitted dose curve; in most records, active means well fitted cell-killing curve with a large enough effect; inconclusive means small, poorly fitted or top-dose-only effect, or effect the other way, or another doubt; inactive means no such curve, though single readings can be large or run the other way. Potencies of inconclusive entries are left out as doubtful fits.

Assay: qHTS for induction of synthetic lethality in tumor cells producing 2HG: qHTS for the HT-1080-IDH1KD cell line;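 on activity, negative = toxicity: 0% = DMSO wells and -100% = cell-free medium wells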
Conditions: HT-1080 IDH1 knockdown viability, ATP luminescence, 48 h; activity, negative = toxicity: at 46.1 µM (top of the series) unless noted
In short: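 Using the IDH1-knockdown HT-1080 line run in the same batch and compound series as the NT line, viability after 48 h at 37 °C was determined by CellTiter-Glo luminescence and expressed as % activity.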
Potency means the concentration at half of the fitted maximal effect; tags describe the fitted curve by direction and shape.

| Structure (SMILES) | Potency | activity, negative = toxicity |
| --- | --- | --- |
| CCOC(=O)C1=C(Cc2ccc(OC)cc2)C(=O)c2ccccc2C1=O | active: 7.94 µM |  |
| Oc1ccc(C[C@H]2CNC(=S)N2C[C@H]2CCCN2C[C@H](Cc2ccccc2)N2C[C@H](Cc3ccccc3)N(CC3CCCCC3)C2=S)cc1 | inconclusive [cytotoxic, single point] |  |
| O=C(N=Nc1c(O)n(Cc2ccccc2)c2ccccc12)c1ccncc1 | inconclusive [cytotoxic, single point] |  |
| Cc1cc(OCC(=O)NNC(=S)NC(=O)c2cccs2)ccc1Cl | inconclusive [cytotoxic, single point] |  |
| N=C1C(c2nc3ccccc3s2)=C(O)CN1Cc1ccco1 | inconclusive [cytotoxic, single point] |  |
| Cc1ccc(S(=O)(=O)CC(=O)Nc2cc(C)on2)cc1 | inactive |  |
| C[C@H]1CN(S(=O)C(C)(C)C)[C@H](CCO)/C1=C\c1ccccc1 (some centres not stated) | inactive |  |
| COc1ccc(NC(=S)Nc2ccccc2)cn1 | inconclusive [rising, partial curve] |  |
| CC1=NN(c2ccccc2)C(=O)/C1=C/C=C/C=C/N(C)C | inconclusive [cytotoxic, partial curve, poor fit] |  |
| CCOc1cc(CNCCc2ccccc2)ccc1OCC(=O)NC(C)(C)C | inactive |  |
| CCc1nc2ccc(C(=O)Nc3cc(-c4ccccc4)ccc3OC)cn2c1N(C)CCC(C)C | inconclusive [cytotoxic, single point] |  |
| CC[C@@]1(c2ccccc2OC)ON(c2ccccc2C(F)(F)F)C1=O | inconclusive [cytotoxic, single point] |  |
| CN(CC(=O)Nc1ccc(F)c(Cl)c1)S(=O)(=O)c1ccc2c(c1)n(C)c(=O)c(=O)n2C | inactive |  |
| CCOC(=O)C1CC2=C(CCCC2=O)N(Cc2ccccc2)C1=O (configuration not stated) | inactive |  |
| Cc1ccc2c(c1)c1c3n2CCCNC3CCC1 (configuration not stated) | inconclusive [cytotoxic, single point] |  |
| COc1ccccc1NC(=O)C(=O)N1N=C(C(C)C)CC1(O)C(F)(F)F (configuration not stated) | inconclusive [cytotoxic, single point] |  |
| Cc1cc(C2=NNC(=NC3CC3)SC2)c(C)n1-c1ccccc1F | inconclusive [cytotoxic, partial curve] |  |
| COc1ccc(C2CC(c3ccc(C)cc3)=NN2C(=O)c2ccccc2)cc1 (configuration not stated) | inconclusive [cytotoxic, single point] |  |
| Clc1ccc2oc(-c3ccccc3)cc(=NCCCN3CCOCC3)c2c1 | inconclusive [cytotoxic, single point] |  |
| CCCCCCCCCS(=O)(=O)N/N=C/c1cccc([N+](=O)[O-])c1 | inconclusive [cytotoxic, single point] |  |
| Cc1cc(C)cc(NC(=O)/C(C#N)=C/c2cn(CC(=O)NCc3ccco3)c3ccccc23)c1 | active: 9.2 µM |  |
| ClCCn1cnc2c(SCc3ccccc3)ncnc21 | inconclusive [cytotoxic, full curve, poor fit] |  |
| COC(=O)[C@@]12C[C@@H](CC(=O)NCc3cccs3)C(=O)N(Cc3ccc4c(c3)OCO4)C1=CCC(C)(C)C2 | inconclusive [cytotoxic, partial curve] |  |

| Structure (SMILES) | Potency | activity, negative = toxicity |
| --- | --- | --- |
| COC(=O)c1ccccc1N(C)S(=O)(=O)c1cc2c(cc1C)OCC(=O)N2 | inconclusive [cytotoxic, single point] |  |
| COc1ccc(/C=C2\SC(=O)N(CC(=O)NNC(=O)c3ccccc3O)C2=O)cc1OC | inconclusive [cytotoxic, partial curve] |  |
| CC(=O)c1cccc(NC(=O)N2CCN(S(C)(=O)=O)CC2)c1 | inactive |  |
| O=C(N/N=C/c1ccc[nH]1)c1cccc([N+](=O)[O-])c1 | inactive |  |
| CCN(CC)CCN(C(=O)c1cc2ccccc2cc1OC)c1nc2ccc(OC)cc2s1 | inconclusive [cytotoxic, single point] |  |
| COc1cc(/C=N/Nc2snc(SC)c2C#N)cc(OC)c1OC | active: 4.61 µM |  |
| CCOc1ccc2nc3ccc4[nH]onc4c3c2c1 | inconclusive [cytotoxic, single point] |  |
| CCOC(=O)[C@]12CCCC=C1N(Cc1ccccc1)C(=O)[C@H](CC(=O)NCC13CC4CC(CC(C4)C1)C3)C2 | inconclusive [cytotoxic, single point] |  |
| CN(C)CCCNc1nc2cc(-c3ccc4c(ccn4C)c3)sc2c(=O)n1C |  | inconclusive: -30.4% [cytotoxic] |
| CCC(=O)N1CCN(c2nc(-c3ccc(Cl)cc3)cs2)CC1 | inconclusive [cytotoxic, single point] |  |
| COc1cccc(C(=O)/C=C/Nc2cc(C)ccc2O)c1 | inconclusive [cytotoxic, single point] |  |
| COc1ccc(C(=O)NNC(=O)c2ccccc2[N+](=O)[O-])cc1Br | inconclusive [cytotoxic, single point] |  |
| COc1ccc(OC)c(-c2cc(C3CCN(C(=O)OC(C)(C)C)CC3)[nH]n2)c1 | inconclusive [cytotoxic, single point] |  |
| COC(=O)C1=CN(c2ccc(F)cc2)C(N)=C(C#N)C1c1ccccc1 (configuration not stated) | inconclusive [cytotoxic, single point] |  |
| Cc1ccc(OCCOC(=O)c2cc(S(=O)(=O)N3CCCCC3)ccc2N2CCOCC2)cc1 | inconclusive [cytotoxic, single point] |  |
| S=C(NCc1ccccn1)NN=Cc1ccccn1 | inconclusive [cytotoxic, full curve] |  |
| CC(C)(C)c1ccc(-c2nc(C#N)c(NCc3cccnc3)o2)cc1 | inconclusive [cytotoxic, partial curve] |  |
| CC(CC(=O)Nc1ccc2c(c1)c(=O)n(C)n2-c1ccc2ccccc2c1)C(F)(F)F (configuration not stated) | inconclusive [cytotoxic, full curve] |  |
| CCCc1nc([N+](=O)[O-])c(S(=O)(=O)c2ccccc2)n1CC(C)C | inconclusive [cytotoxic, partial curve, poor fit] |  |
| O=C(NNS(=O)(=O)c1ccccc1[N+](=O)[O-])c1ccc(F)cc1 | inconclusive [cytotoxic, partial curve] |  |
| COc1ccc(C(=O)/C(C#N)=N/Nc2ccccc2[N+](=O)[O-])cc1 | active: 2.31 µM |  |
| C=CCn1c(=O)c2c(C)c(C)sc2n2c(Nc3ccccc3)nnc12 | inconclusive [cytotoxic, single point] |  |
| CC(C)(C)n1[nH]c2c3c(ccc2c1=O)C(=O)c1ccccc1C3=O | inconclusive [cytotoxic, partial curve] |  |

| Structure (SMILES) | Potency | activity, negative = toxicity |
| --- | --- | --- |
| O=[N+]([O-])c1ccc(/C=N/Nc2ccnc3cc(Cl)ccc23)o1 | inconclusive [cytotoxic, single point] |  |
| Cc1nc2ccc(NC(=O)c3cccc(S(=O)(=O)N(C)c4ccccc4)c3)cc2s1 | inconclusive [cytotoxic, single point] |  |
| COc1cccc(C2c3[nH]c4ccccc4c3CCN2Cc2cnc(C)s2)c1OC (configuration not stated) |  | inconclusive: -31.1% [cytotoxic] |
| Cc1cc(C)c(CN2CCN(C(=O)Cn3ccc(NC(=O)OCc4ccccc4)nc3=O)CC2)c(C)c1 | inconclusive [cytotoxic, single point] |  |
| CC(/C=N/NC(=O)c1nnn(-c2nonc2N)c1CN1CCCCC1)=C\c1ccccc1 | inconclusive [cytotoxic, single point] |  |
| Nc1cc(C(=O)OCC(=O)N2CCC(Cc3ccccc3)CC2)ccc1Cl | inactive |  |
| COc1cccc2c(=O)cc(C)n(CC(=O)Nc3cccc(C)c3)c12 | inconclusive [cytotoxic, single point] |  |
| Cc1ccccc1OCC(=O)Nc1ccc2c(c1)Cc1ccccc1-2 | inconclusive [cytotoxic, single point] |  |
| COc1ccc(Nc2nc(N)c(C(=O)c3ccc(F)cc3)s2)cc1 | active: 1.84 µM |  |
| Cc1c(C(=O)NCC(c2ccco2)N2CCCC2)oc2ccc(Cl)cc12 (configuration not stated) | active: 23.1 µM |  |
| C=CCn1c(SCC(=O)c2cccs2)nc2sc(C)c(C)c2c1=O | inconclusive [cytotoxic, partial curve] |  |
| Cc1cc(C(=O)Nc2cccc(C)c2C)c2ccccc2n1 | inactive |  |
| CCCC(=O)Nc1ccc(C(=O)N/N=C/c2ccc[nH]2)cc1 | inconclusive [cytotoxic, single point] |  |
| COC(=O)[C@@]1(Cc2ccccc2)[C@H]2C(=O)N(Cc3ccccc3)C(=O)[C@H]2[C@H]2CN=C(SCc3ccc(Cl)cc3)N21 | inactive |  |
| Cc1cc(C)cc(-n2c(O)c(C=NC3CCS(=O)(=O)C3)c3ccccc3c2=O)c1 (configuration not stated) | inconclusive [cytotoxic, single point] |  |
| CC(C)(C)c1ccc(C(=O)NN2CCOCC2)cc1 | inactive |  |
| O=C(COc1ccccc1Cl)NCCNC(=O)c1ccco1 | inactive |  |
| Cc1[nH]nc(Nc2ccc(O)cc2)c1[N+](=O)[O-] | inconclusive [rising, single point] |  |
| COc1ccccc1Nc1nnc(SCC2CCCCO2)s1 (configuration not stated) | active: 14.6 µM |  |
| COCCN(CC(=O)Nc1cccc(C)c1C)C(=O)c1cc(-c2cccs2)nn1-c1ccccc1 | inactive |  |
| CC(=O)N(C)c1ccc(OCC(O)Cn2c3ccc(Cl)cc3c3cc(Cl)ccc32)cc1 (configuration not stated) | inconclusive [cytotoxic, full curve] |  |
